This note sets out measurements from PubChem BioAssay AID1508624 (National Center for Advancing Translational Sciences (NCATS), 2021).

Out of some 48,000 compounds screened, about 120 (0.25%) were called active. Another 4% or so got no clear call; they are omitted. The call rests on the fitted dose curve; in most records, active means well fitted activation curve with a large enough effect; inconclusive means small, poorly fitted or top-dose-only effect, or another doubt; inactive means no such curve, though single readings can be large or run the other way. Some of the results follow.

This assay is described as follows: Primary qHTS for Identification of Small Molecule Activators of Huntingtin-Antisense Promoter Activity. Further: nearly all actives have a fitted effect of over 55% in size. The note with it: HEK293 HTT-AS promoter firefly luciferase reporter, 24 h; series mostly up to 57.5 µM; activity change, positive = activation: at the top concentration. The procedure, abridged: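 HEK293 luciferase promoter-reporter cells (2,500/well) plated 24 h, then compounds added at up to 57.5 uM final for 24 h at 37 °C. Firefly luminescence by Dual-Glo, normalized to vehicle (0%) and zero RLU (-100%).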
Turning to `CC(C)(C)C(O)/C=C/c1ccc2c(c1)OCO2` (stereo not drawn), the “activity change, positive = activation” value is inactive: 13.1%.
Take `Cc1cc(C)cc(NC(=O)Nc2nnc(N(C)C3CCCCC3)s2)c1`: the “activity change, positive = activation” value is inactive: 0%.
Under `COc1ccccc1-c1noc(CCCC(=O)NCc2ccco2)n1` stands inactive: -15.4%.
Under `COc1cc(NC(=O)Cn2c(=O)n(CC3CCCO3)c(=O)c3ccccc32)cc(OC)c1` (stereo not drawn) stands inactive: -8.58%.
For `COc1ccc2sc(N(Cc3cccnc3)C(=O)COc3ccccc3)nc2c1` the value was inactive: 0.846%; for `CC(=O)c1ccc(NS(=O)(=O)c2ccc(-c3cnc(C4CC4)o3)cc2)cc1`, inactive: -32.8%.
For `CCCCc1nn2c(=O)cc(COC(=O)c3ccc(NC(=O)C(CC)CC)cc3)nc2s1`, the “activity change, positive = activation” value was inactive: -49.7%.
For `Cc1ccc(NC(=O)c2cc3nc(-c4ccccc4)cc(-c4ccccc4)n3n2)cc1` the value was inactive: -3.06%; for `CCn1cnc2c(=O)oc3ccc(S(=O)(=O)Nc4ccc(OC)cc4)cc3c21`, inactive: -7.88%; for `COc1ccc(CCNC(=O)c2ccc(Cn3c(=O)c4ccccc4n(Cc4cccc(C)c4)c3=O)cc2)cc1OC`, inactive: -3.91%.
Under `CCOCCCn1c(=N)c(C(=O)NC2CCCC2)cc2c(=O)n3cc(C)ccc3nc21` stands inactive: -3.56%; under `CCC1CCCCN1S(=O)(=O)c1cc(C(=O)Nc2ccc(C)c(F)c2)ccc1F` (stereo not drawn), inactive: -38.8%.
Under `COc1ccccc1Cc1nc2ccccc2nc1SCC(=O)Nc1cc(Cl)ccc1OC` stands inactive: -9.11%; under `COc1ccc(-n2c(SCC(=O)N3CCc4ccccc43)nc3c([nH]c4ccccc43)c2=O)cc1`, inactive: -4.73%.
Consider `COc1ccc(C(=O)Nc2ccc3oc(-c4ccc(F)cc4Cl)nc3c2)cc1`, for which the “activity change, positive = activation” value is inactive: -3.59%.
Under `CCOC(=O)C1CCCN(C(=O)Cn2ncc3c(C)n(Cc4ccccc4Cl)c(C)c3c2=O)C1` (stereo not drawn) stands inactive: -30.4%; under `CCCc1nc2ccccc2n1CC(O)COc1ccc(C(=O)OC)cc1` (stereo not drawn), inactive: -22.5%.
For `CCC1CCCCN1S(=O)(=O)c1ccc(C(=O)Nc2sc3c(c2C(N)=O)CCC3)cc1` (stereo not drawn) the value was inactive: -27.4%; for `O=C(CSc1nnc(-c2ccccc2F)o1)Nc1cccc(C(F)(F)F)c1`, inactive: -5.76%; for `O=C(Nc1ccc(Cl)cc1F)c1cnc2sc(N3CCOCC3)nn2c1=O`, inactive: -17.7%.
Under `COCCCN1C(=O)c2ccccc2CC1(C)C(=O)NC1CCCCC1` (stereo not drawn) stands inactive: -5.46%.
With `COc1ccc(C2C(C(=O)Nc3ccc(Cl)cc3)=C(C)Nc3nc(SCc4cccc(C)c4)nn32)cc1OC` (stereo not drawn), the “activity change, positive = activation” value was inactive: -2.68%.
Under `CC(C)(C)OC(=O)N1CCC(c2c(C(=O)N3CCN(c4ccccn4)CC3)cnn2-c2ccccc2)CC1` stands inactive: -1.13%.
For `COc1ccc(-c2nc(C)c(CCNC(=O)c3cccs3)s2)cc1OC` the value was inactive: 29.9%; for `COc1ccccc1CNc1cc(C)nc2nc(-c3ccc(C)cc3)nn12`, inactive: -1.29%; for `CCN(CCCc1ccccc1)CCCc1ccccc1`, inactive: -10.3%.
For `Cc1ccc2nc(NC(=O)CSc3nccn3-c3ccc(Cl)cc3)sc2c1` the value was inactive: -26.8%; for `O=C(CCN1CCN2CCCC2C1)N1c2ccccc2Sc2ccc(Cl)cc21` (stereo not drawn), inactive: -11.7% [at 25.1 µM, percent change from vehicle, -100% = no light]; for `C[C@@H](C1=C(CCN(C)C)Cc2ccccc21)c1ccccn1`, inactive: -4.1%.
Regarding `CCCCC(CC)COC(=O)c1ccccc1O` (stereo not drawn), the “activity change, positive = activation” value was inactive: -4.45%.
For `Cc1ccc(C)c(NC(=O)Cn2c(=O)n(-c3ccc(CC(=O)NCC4CCCO4)cc3)c(=O)c3ccccc32)c1` (stereo not drawn) the value was inactive: -8.25%; for `Cc1ccc(OCC(=O)NCC2(N(C)C)CCCCC2)cc1C`, inactive: 6.47%; for `CCCOc1ccc(C(=O)NCC2OCCc3ccccc32)cc1` (stereo not drawn), inactive: 7.22%.
For `Cc1ccc(CNc2oc(-c3ccc(COc4ccc(C)cc4)o3)nc2C#N)cc1` the value was inactive: -19%; for `Cc1ccc(NC(=O)c2c(C)nc3sc(C(=O)Nc4ccc(F)cc4)c(N)c3c2-c2ccc(C)o2)c(C)c1`, inactive: 12%; for `CC1CN(C(=O)CCC(=O)Nc2cc(F)ccc2F)c2ccccc2S1` (stereo not drawn), inactive: -14.7%.
For `O=C(O)c1c(O)c(-c2ccccc2)nc2ccccc12` the value was inactive: -8.27%; for `Cc1ccc2c(c1)-c1c(cnn1CC(=O)N1CCN(c3ccccc3F)CC1)CO2`, inactive: -8.9%.
On to `COCCCNC(=O)c1cnc2sc(N3CCCCCC3)nn2c1=O`, for which the “activity change, positive = activation” value is inactive: -5.66%.
For `COc1cccc(NC(=O)CCc2nc3c(C)nn(-c4ccc(C)cc4)c3n(C)c2=O)c1` the value was inactive: -13.5%; for `CCCCN(CCCNC(=O)CN1N=C(c2ccc(C)cc2)CCC1=O)c1ccccc1`, inactive: -31%.
For `O=c1c(=O)n(Cc2ccc(Cl)cc2)ccn1Cc1ccc(F)cc1` the value was inactive: -12.4%; for `COc1cc2c(cc1OC)CN(CCc1ccc(NC(=O)c3cccc4c(=O)c5cccc(OC)c5[nH]c34)cc1)CC2`, inactive: -63.5%; for `COc1cccc(OCC(=O)NCCS(=O)(=O)N2CCN(c3ccccc3F)CC2)c1`, inactive: -11.6%.
Under `Cc1oc2ncn(CC(C)C)c(=O)c2c1C(=O)NCCc1ccccc1` stands inactive: -4.7%; under `Cc1ccc(-c2nc(CNC(=O)Nc3ccccc3)c(C)o2)cc1`, inactive: -20.8%.
Regarding `COc1ccc(-c2cn3cccnc3n2)cc1NC(=O)Cc1ccccc1`, the “activity change, positive = activation” value is inactive: -1.3%.
Under `CCc1nc2cccnc2n1-c1ccc(CC(=O)Nc2c(C)cccc2C)cc1` stands inactive: -13.2%.
